# Results published in PubChem BioAssay AID504339 (National Center for Advancing Translational Sciences (NCATS), 2011).
# Screen size: about 390,000 compounds; about 17,000 (4.4%) were called active. The shares of active, inactive and inconclusive entries below differ from those in the screen. The call rests on the fitted dose curve; in most records, active means well fitted inhibition curve with a large enough effect; inconclusive means small, poorly fitted or top-dose-only effect; inactive means no such curve, though single readings can be large or run the other way. Potencies of inconclusive entries are doubtful fits and often do not repeat.
# Target: Lysine-specific demethylase 4A (Homo sapiens) (UniProt O75164)
# Experiment: qHTS Assay for Inhibitors of JMJD2A-Tudor Domain; further: nearly all actives have a fitted effect of over 50% in size
# Settings: AlphaScreen JMJD2A-Tudor / H3K4me3 peptide binding; activity change, negative = inhibition: at 114 µM (top of the series)
# On the % scale 0 is the no-effect control and ±100 the full control effect; potency means the concentration at half of the fitted maximal effect; tags describe the fitted curve by direction and shape.
# UniProt O75164, sequence (O75164 whole entry, looked up, the tested form may be a part): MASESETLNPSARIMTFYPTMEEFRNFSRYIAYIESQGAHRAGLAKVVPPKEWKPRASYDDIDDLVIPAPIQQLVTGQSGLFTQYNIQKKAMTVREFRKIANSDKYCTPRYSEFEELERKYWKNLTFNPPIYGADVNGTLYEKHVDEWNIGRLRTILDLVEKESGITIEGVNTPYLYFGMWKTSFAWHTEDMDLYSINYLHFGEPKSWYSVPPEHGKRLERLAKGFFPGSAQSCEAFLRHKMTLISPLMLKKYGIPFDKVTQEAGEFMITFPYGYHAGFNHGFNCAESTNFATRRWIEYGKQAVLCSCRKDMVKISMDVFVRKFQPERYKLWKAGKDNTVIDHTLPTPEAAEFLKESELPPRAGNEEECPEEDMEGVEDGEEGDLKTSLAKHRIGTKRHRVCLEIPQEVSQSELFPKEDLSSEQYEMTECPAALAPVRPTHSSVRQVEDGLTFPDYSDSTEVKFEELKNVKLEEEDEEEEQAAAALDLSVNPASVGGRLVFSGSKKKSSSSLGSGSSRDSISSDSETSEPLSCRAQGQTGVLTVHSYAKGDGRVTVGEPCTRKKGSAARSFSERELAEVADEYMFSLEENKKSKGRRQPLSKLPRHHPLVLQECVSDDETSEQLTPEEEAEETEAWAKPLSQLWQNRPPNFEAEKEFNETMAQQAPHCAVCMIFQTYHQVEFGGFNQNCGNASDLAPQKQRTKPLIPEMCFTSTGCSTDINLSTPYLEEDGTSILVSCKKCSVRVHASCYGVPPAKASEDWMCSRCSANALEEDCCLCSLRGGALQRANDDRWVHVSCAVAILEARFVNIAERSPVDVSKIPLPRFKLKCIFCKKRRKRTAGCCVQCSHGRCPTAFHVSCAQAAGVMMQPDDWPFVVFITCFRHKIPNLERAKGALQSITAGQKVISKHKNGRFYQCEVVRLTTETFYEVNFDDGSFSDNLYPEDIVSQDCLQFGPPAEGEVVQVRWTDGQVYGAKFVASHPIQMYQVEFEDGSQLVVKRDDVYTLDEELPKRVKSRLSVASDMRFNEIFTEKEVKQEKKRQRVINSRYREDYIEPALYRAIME
SMILES,Potency,"activity change, negative = inhibition"
COc1cc2sc(-c3ccccc3OC)c(-c3ccc(OCCN4CCCCC4)cc3)c2cc1OC,active: 28.2 µM,–
CCN1/C(=C\c2ccc3ccccc3[n+]2CC)Sc2cc(C)ccc21,active: 20 µM,–
O=C(CNc1ccccc1)N/N=C/c1c[nH]c2ccccc12,"inconclusive: 70.8 µM [inhibitor, partial curve, poor fit]",–
O=C(CCCCn1cnc2c(=S)nc[nH]c21)Nc1ccc(C(=O)O)cc1,active: 1.41 µM,–
Cc1oc(-c2ccccc2)nc1C(=O)N1CCN(c2ccc(F)cc2)CC1,"inconclusive: 17.8 µM [inhibitor, full curve]",–
COc1ccc(/C=N/N=C2/NC(=O)C(CC(=O)O)S2)cc1OCc1ccc(Cl)cc1Cl (centres undefined),"inconclusive: 28.2 µM [inhibitor, single point]",–
Cc1ccc(-n2cccc2/C=C2/C(=N)N3C(=NC2=O)SN=C3S(C)(=O)=O)cc1Cl,active: 44.7 µM,–
O=C(COc1ccccc1)NCC(c1ccco1)N1CCN(c2ccccc2F)CC1 (centres undefined),"inconclusive: 63.1 µM [inhibitor, partial curve, poor fit]",–
CCOC(=O)C1=C(C)N=C2SC(C(=O)OC)=CC(=O)N2C1c1ccc(F)cc1 (centres undefined),active: 25.1 µM,–
O=C(NCCC(=O)N(Cc1ccco1)Cc1cccs1)c1ccc(Br)cc1,–,inactive: -13.1%
COc1ccc(CC(=O)N/N=C(/C)CC(=O)N(C)c2ccccc2)cc1,–,inactive: -7.75%
CC1CCC(C(C)C)C(OC(=O)COC(=O)c2ccc(N)cc2)C1 (centres undefined),–,inactive: -17.7%
O=C(COc1ccc2oc3c(c2c1)CCCC3)Nc1cccc(Br)c1,–,inactive: 2.42%
Cc1ccc2c(c1)-c1c(ssc1=S)C(C)(C)N2C(=O)CSC1=NCCS1,active: 5.01 µM,–
O=C(Nc1ccc(F)cc1F)c1ccc(-n2cccn2)nc1,"inconclusive: 1.26 µM [inhibitor, full curve, poor fit]",–
C=CCN(c1ccccc1)S(=O)(=O)c1cccc(C(=O)Nc2ccc(N3CCOCC3)cc2)c1,"inconclusive: 12.6 µM [inhibitor, full curve]",–
Cc1cc(C)c2c(c1)NC(c1cc3c(cc1Br)OCO3)C1CC=CC21 (centres undefined),"inconclusive: 39.8 µM [inhibitor, partial curve]",–
COc1ccc(OC)c(Nc2c3ccccc3nc3ccccc23)c1,active: 22.4 µM,–
COc1cc(/C=N/N=C(N)N)ccc1OCc1ccc(Cl)cc1,"inconclusive: 35.5 µM [inhibitor, partial curve]",–
O=C(Nc1ccc(Cl)cc1)c1ccc2c(c1)S(=O)(=O)c1ccccc1C2=O,–,inactive: -5.04%
CCOC(=O)Cc1csc(NC(=S)NC(=O)c2cc(OC)c(OC)c(OC)c2)n1,"inconclusive: 89.1 µM [inhibitor, partial curve]",–
CCOC(=O)C1=C(C)N=C2SC(C(=O)OC)=CC(=O)N2C1c1cc(OC)c(OC)c(OC)c1 (centres undefined),"inconclusive: 31.6 µM [inhibitor, full curve, poor fit]",–
COc1ccc(NS(=O)(=O)c2cnc(N)nc2)cc1Cl,active: 50.1 µM,–

SMILES,Potency,"activity change, negative = inhibition"
Cc1cc(Cl)ccc1Oc1ncnc2oc(-c3ccccc3)cc12,"inconclusive: 56.2 µM [inhibitor, partial curve, poor fit]",–
CCOC(=O)c1ccoc1CSCc1ccc(C(=O)OC)o1,–,inactive: -26.7% [at 11.4 µM]
Cn1c(=O)oc2cc(S(=O)(=O)NC(CC(=O)O)c3cccc(Br)c3)ccc21 (centres undefined),–,inactive: -2.41%
Cc1cc(NC(=O)Nc2ccc3c(ccn3C)c2)sn1,"inconclusive: 70.8 µM [inhibitor, partial curve]",–
CN(C)c1cc(N/N=C\c2ccccc2)nc(N(C)C)n1,"inconclusive: 56.2 µM [inhibitor, partial curve, poor fit]",–
O=C(O)c1ccc(O)c(N2C(=O)Nc3ccccc3N2O)c1,"inconclusive: 35.5 µM [inhibitor, single point]",–
COc1ccccc1-n1cnc2cc(NCc3ccco3)ccc21,"inconclusive: 56.2 µM [inhibitor, partial curve]",–
O=C(NC(=S)NCC1CCCO1)c1ccco1 (centres undefined),–,inactive: -13.1%
O=C(Nc1ccc(-c2nc3cc(Cl)ccc3o2)cc1)c1cc(Br)ccc1Cl,"inconclusive: 70.8 µM [inhibitor, partial curve, poor fit]",–
Cc1nn(-c2ccccc2)c(C)c1C(=O)OCC(=O)Nc1ccc2c(c1)OCO2,"inconclusive: 89.1 µM [inhibitor, partial curve]",–
Cc1ccc(CCN2CC(C(=O)NCCCOC(C)C)CC2=O)cc1 (centres undefined),–,inactive: -7.91%
C[C@@H](CN1CCC[C@H]1CN1C(N)=NC[C@@H]1Cc1ccccc1)N1C[C@@H](Cc2ccccc2)N(CCc2ccc(Cl)c(Cl)c2)C1=N,"inconclusive: 50.1 µM [inhibitor, partial curve]",–
O=[N+]([O-])c1ccc(CNc2ccc(F)cc2)s1,"inconclusive: 56.2 µM [inhibitor, partial curve]",–
CN(C)C(=S)c1ccccc1,"inconclusive: 70.8 µM [inhibitor, partial curve]",–
O=C(CCNc1ccc(F)cc1)c1cccc([N+](=O)[O-])c1,"inconclusive: 50.1 µM [inhibitor, partial curve]",–
CN(CC(=O)Nc1ccc(OC(F)(F)F)cc1)S(=O)(=O)c1ccc2c(c1)CCC(=O)N2,–,inactive: -7.74%
CCCCc1cc(=O)oc2c3c(cc(OCC(=O)NCCCO)c12)OC(C)(C)CC3,–,inactive: -15.8%
O=C(Nc1ccc(N2CCCC2)cc1)C(c1ccccc1)c1ccccc1,"inconclusive: 56.2 µM [inhibitor, partial curve]",–
Cc1c(C(=O)N2CCCC2)oc2c1-c1nn(CC(=O)NCc3ccc(OC(C)C)cc3)cc1CC2,"inconclusive: 44.7 µM [inhibitor, partial curve]",–
CN1C(=O)C2(c3ccccc31)N(C)CC(c1ccccc1)C21SC(=S)N(Cc2ccco2)C1=O (centres undefined),"inconclusive: 10 µM [inhibitor, full curve, poor fit]",–
COc1cccc2oc3cc(C#Cc4ccccn4)ccc3c(=O)c12,active: 22.4 µM,–
O=c1[nH][nH]cc1C=Nc1cc(Cl)ccc1O,active: 79.4 µM,–
COc1ccc(C2CC(O)(c3ccccc3)Oc3cc(OC)cc(OC)c32)cc1 (centres undefined),"inconclusive: 56.2 µM [inhibitor, partial curve]",–

SMILES,Potency,"activity change, negative = inhibition"
Cc1ccc(C)c(-n2c(Cc3cc(=O)[nH]c(=O)[nH]3)nnc2SCC(=O)NCc2ccco2)c1,"inconclusive: 15.8 µM [inhibitor, full curve, poor fit]",–
CC(C)n1c(NCc2ccc(Cl)cc2)nc2ccccc21,–,inactive: -4.93%
Cc1ccc(NCC(O)C(O)C(O)CO)c(N=Nc2ccccc2)c1C (centres undefined),"inconclusive: 50.1 µM [inhibitor, partial curve]",–
Cc1cccc(N2CCN(C(=O)c3ccc(NC4=NC5CS(=O)(=O)CC5S4)cc3)CC2C)c1 (centres undefined),"inconclusive: 17.8 µM [inhibitor, full curve, poor fit]",–
COc1ccc(/C=C2/SC(=O)N(NS(=O)(=O)c3ccccc3)C2=S)cc1OC,"inconclusive: 63.1 µM [inhibitor, partial curve, poor fit]",–
CC1Oc2ccccc2OC1(O)c1ccc2ccccc2n1 (centres undefined),"inconclusive: 89.1 µM [inhibitor, single point]",–
S=c1[nH]nc(-c2ccco2)n1/N=C/C(Cl)=C/c1ccccc1,"inconclusive: 44.7 µM [inhibitor, partial curve]",–
COc1ccc(OC)c(CNC(=O)Cc2c(C(=O)O)[nH]c3ccc(Cl)cc23)c1,"inconclusive: 56.2 µM [inhibitor, partial curve, poor fit]",–
Cc1ccc(CNc2nc(-c3ccco3)nn2C(=O)c2ccccc2[N+](=O)[O-])cc1,"inconclusive: 39.8 µM [inhibitor, partial curve]",–
Cc1ccc(CSc2nnc(-c3ccncc3)n2C)cc1,active: 89.1 µM,–
N#Cc1nc(-c2ccc(COc3ccc(Cl)cc3)o2)oc1N1CCCCC1,"inconclusive: 11.2 µM [inhibitor, partial curve]",–
O=Cc1c(C(=O)O)n(CC(=O)O)c2ccccc12,"inconclusive: 63.1 µM [inhibitor, single point]",–
COC(=O)/C=C1\S/C(=N/NC(=O)c2ccccc2)NC1=O,–,inactive: -18.9%
COC(=O)c1c(NC(=O)C(=O)N2CCCCC2)sc2c1CC(C)(C)OC2,–,inactive: -1.38%
CCc1cccc(C)c1Nc1c(-c2ccc(F)cc2)nc2sccn12,"inconclusive: 56.2 µM [inhibitor, partial curve]",–
COc1ccc2nc(NC(=O)c3ccc4ncsc4c3)sc2c1,"inconclusive: 100 µM [inhibitor, partial curve]",–
CC(=O)/C(CN1CCCCC1)=N\O,–,inactive: -7.56%
CO/N=C/C1C(=O)NN=C1c1ccccc1 (centres undefined),active: 12.6 µM,–
CC(=O)c1ccc(NC(=O)CSc2ccc(-c3ccc4c(c3)OCO4)nn2)cc1,"inconclusive: 31.6 µM [inhibitor, partial curve]",–
COc1cc(C(C)=O)ccc1Oc1ncnc2c1cnn2-c1ccc(F)cc1,"inconclusive: 11.2 µM [inhibitor, partial curve]",–
Cc1ccccc1CNC(=O)Cn1nc(C)c2nn(-c3ccc(Cl)cc3)c(C)c2c1=O,"inconclusive: 100 µM [inhibitor, single point]",–
COc1ccc(NC(=O)n2nc(OC(=O)c3cccs3)cc2N)cc1,"inconclusive: 89.1 µM [inhibitor, partial curve]",–
CCN(CC)C(=O)[C@H]1CC(CC(=O)NCCC2=CCCCC2)C(=O)N2CCc3c([nH]c4ccccc34)[C@]12C (some centres undefined),"inconclusive: 44.7 µM [inhibitor, partial curve]",–
